Key:
AR42 J tumor cells [1] = test: Cell uptake and internalization, 161Tb- vs 177Lu-labeled peptides; format: cell-based, rat; details: 1 μM DOTANOC
Protocol: The well-plates were incubated under standard cell culture conditions for 0.5 h, 2 h or 4 h. […] The total uptake and the internalized fractions were determined using a γ-counter (Perkin Elmer, Wallac Wizard 1480). […] Experiments were performed twice or three times in triplicate. Statistical analysis was performed using a two-way ANOVA with Tukey's multiple comparisons post-test.

AR42 J tumor cells [2] = test: Cell viability assay (MTT); format: cell-based, rat; details: 2 h exposure, 6 d growth
AR42 J tumor cells [3] = test: Nuclear localization of the radiopeptides; format: cell-based, rat; details: 2.5 MBq, 125 pmol, 2 h
Protocol: The next day, the medium was removed, the tumor cells were washed with PBS (pH 7.4) and 19.5 ml of assay medium was added. The radiopeptides were added in a volume of 0.5 ml (2.5 MBq, 125 pmol) and the tumor cells incubated for 2 h at 37° C. Afterwards, the cells were washed several times with PBS (pH 7.4) to completely remove excess of radiopeptides. Subsequently, the cell nuclei and cytoplasm/membrane fractions were harvested according to the manufacturer's protocol using the Nucli EZ Prep Nuclei Isolation Kit (Sigma Aldrich, USA). Ice-cold Nuclei EZ lysis buffer (4 mL) were added to each Petri dish to lyse the tumor cells followed by transfer of the cell suspension into Eppendorf tube for centrifugation for 5 min at 500 rcf at 4° C. The supernatant containing cytoplasm/membrane fractions was transferred to a tube for counting activity in a γ-counter. The pellet was resuspended in 4 ml ice-cold Nuclei EZ lysis buffer followed by additional centrifugation for 5 min at 500 rcf at 4° C. […] The measured activity of nuclei and cytoplasm/cell membrane fractions was defined as 100% of the cellular uptake. Nuclear localization was expressed as percentage of total cellular uptake. The collected fractions were stained with 0.4% trypan blue solution and analyzed using a microscope in order to confirm that the nuclei were properly separated from other cell fragments.

AR42 J tumor cells [4] = details: n=1

| SMILES | cell uptake with excess DOTANOC (AR42 J tumor cells [1]) | EC50 (95% Confidence Interval) (AR42 J tumor cells [2]) [MBq/mL] | nuclear uptake (AR42 J tumor cells [3]) | activity concentration for a similar effect (as 0.50 MBq/mL [161Tb]Tb-DOTATOC) (AR42 J tumor cells [4]) [MBq/mL] |
| --- | --- | --- | --- | --- |
| C[C@@H](O)[C@@H]1NC(=O)[C@H](CCCCN)NC(=O)[C@@H](Cc2c[nH]c3ccccc23)NC(=O)[C@H](Cc2ccc(O)cc2)NC(=O)[C@@H](NC(=O)[C@@H](Cc2ccccc2)NC(=O)CN2CCN(CC(=O)O)CCN(CC(=O)O)CCN(CC(=O)O)CC2)CSSC[C@@H](C(=O)N[C@H](CO)[C@@H](C)O)NC1=O [[^161Tb]Tb-DOTATOC] [metal not drawn] | prevented the cell uptake | 1.6 | – | – |
| C[C@@H](O)[C@@H]1NC(=O)[C@H](CCCCN)NC(=O)[C@@H](Cc2c[nH]c3ccccc23)NC(=O)[C@H](Cc2ccc(O)cc2)NC(=O)[C@@H](NC(=O)[C@@H](Cc2ccccc2)NC(=O)CN2CCN(CC(=O)O)CCN(CC(=O)O)CCN(CC(=O)O)CC2)CSSC[C@@H](C(=O)N[C@H](CO)[C@@H](C)O)NC1=O [[^177Lu]Lu-DOTATOC] [metal not drawn] | prevented the cell uptake | 8.2 | < 1 % of total cellular uptake | 5 |

— US20240181094A1, “[161Tb]-BASED RADIOPEPTIDES” (priority 2021, published 2024)
